From PubChem BioAssay AID504832 (National Center for Advancing Translational Sciences (NCATS), 2011)
Hit rate of the full screen: of about 310,000 compounds, about 18,000 (5.8%) were called active. The inconclusive results got no clear call from the source; some entries with a clear call stand among them for comparison. The call rests on the fitted dose curve; in most records, active means well fitted inhibition curve with a large enough effect; inconclusive means small, poorly fitted or top-dose-only effect, or another doubt; inactive means no such curve, though single readings can be large or run the other way. No potency is given beside an inconclusive call; the fits are too rough.

Experiment: Primary qHTS for delayed death inhibitors of the malarial parasite plastid, 48 hour incubation
Details: P. falciparum luciferase growth in erythrocytes; series mostly up to 28.7 µM
In short: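 Luciferase-expressing parasites in RBCs, 2% Hct / 0.1% parasitemia final; RPMI 1640 + 0.5% Albumax; 37 C, 5% CO2, one generation; luminescence read-out, lower signal = inhibition.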
Potency means the concentration at half of the fitted maximal effect; tags describe the fitted curve by direction and shape.

| SMILES | Potency |
| --- | --- |
| CCOc1ccccc1NC(=O)c1ccc(F)c(S(=O)(=O)N2CCC3(CC2)OCCO3)c1 | inconclusive [inhibitor, partial curve] |
| CN(C)c1ccc(C2C3C(=O)N(c4ccc(C(=O)O)cc4)C(=O)C3ON2c2ccccc2)cc1 (centres undefined) | inactive |
| Cc1occc1C(=O)NCc1nc(-c2ccc(Cl)cc2)no1 | inactive |
| CCOc1ccc(OCCC(=O)OCC(=O)NNC(=O)c2ccccc2)cc1 | inactive |
| CC(=O)Nc1ccc(NC2=C/C(=N/S(=O)(=O)c3cccs3)c3ccccc3C2=O)cc1 | active: 0.147 µM |
| CCOCCCNC(=O)c1c[nH]c2cc(C)ccc2c1=O | inconclusive [inhibitor, full curve, poor fit] |
| O=C(c1n[nH]c(=O)c2ccccc12)N1CCN(S(=O)(=O)c2ccccc2Cl)CC1 | inconclusive [inhibitor, partial curve, poor fit] |
| Cc1oncc1-c1csc(-c2ccccc2)n1 | inactive |
| CCN(CC)S(=O)(=O)c1ccc2nc(CSc3nnnn3-c3ccc(O)cc3)[nH]c2c1 | inconclusive [inhibitor, partial curve, poor fit] |
| O=C(c1cc(-c2ccc(Br)cc2)on1)N1CCCC1 | inactive |
| O=C(Nc1ccc(C(=O)N2CCOCC2)cc1)c1cc(-c2cccnc2)nc2ccc(Cl)cc12 | inconclusive [inhibitor, single point] |
| CCOC(=O)c1ccc(N(C(=O)c2ccco2)C(C(=O)NC2CCCC2)c2ccncc2)cc1 (centres undefined) | inconclusive [inhibitor, single point] |
| Cc1nc2ccccc2c(=O)n1-c1ccc(-c2ccccc2)cc1 | inconclusive [inhibitor, single point] |
| O=C(NC1CCSc2ccccc21)c1ccc([N+](=O)[O-])cc1 (centres undefined) | inconclusive [inhibitor, full curve, poor fit] |
| O=C1NC2(CCCCCC2)C(=O)N1Cc1ccccc1Br | inactive |
| CCCCCn1c(SCCC(C)C)nc2c1c(=O)[nH]c(=O)n2C | inconclusive [inhibitor, single point] |
| COC(=O)c1ccccc1NC(=O)CN1CCC(n2nnc3cc(F)ccc32)CC1 | inconclusive [inhibitor, partial curve] |
| C=CCNC(=O)Cc1ccc(S(=O)(=O)N2CCOCC2)s1 | inconclusive [inhibitor, single point] |
| O=C1NC(=O)N(c2ccccc2F)C(=O)/C1=C/c1ccc(Oc2ccc([N+](=O)[O-])cn2)cc1 | inactive |
| CCOCCCNc1nc2c(c(=O)n(C)c(=O)n2C)n1CCCc1ccccc1 | inconclusive [inhibitor, single point] |
| CCn1c(=S)[nH]c2cc(S(=O)(=O)N3CCCCC3)ccc21 | inconclusive [inhibitor, partial curve, poor fit] |
| O=C(Nc1ccc(N2CCN(Cc3ccccc3Cl)CC2)cc1)c1cccnc1 | inconclusive [inhibitor, partial curve] |

| SMILES | Potency |
| --- | --- |
| C=CCOc1ccc(/C=N/NC(=O)c2cc3c(OC)cc(OC)cc3[nH]2)cc1 | active: 3.29 µM |
| Cc1cccc(C)c1NC(=O)CN1C(=O)NC(C)(CCc2ccccc2)C1=O (centres undefined) | inactive |
| Cc1ccccc1S(=O)(=O)Cc1ccc(C(=O)NCCN2CCN(Cc3ccccc3)CC2)o1 | inconclusive [inhibitor, single point] |
| [O-]/[N+](=C\c1ccncc1)c1ccccc1 | inconclusive [inhibitor, single point] |
| Cc1ccccc1-n1c(SCc2c(C)noc2C)nnc1-c1cccnc1 | inconclusive [inhibitor, partial curve, poor fit] |
| Cc1nnc(NC(=O)c2cccc(S(=O)(=O)N(C)c3cccc(Cl)c3)c2)s1 | inconclusive [inhibitor, partial curve, poor fit] |
| Cc1cc(C)c2[nH]c(=O)c(CN(Cc3cccs3)C(=S)NCc3ccco3)cc2c1 | inactive |
| Cc1cc2c(=O)oc(-c3ccc(Br)cc3)nc2s1 | inconclusive [inhibitor, single point] |
| O=C(Nc1ccc2c(c1)OCCO2)c1c[nH]c(=O)n(-c2ccc(F)c(Cl)c2)c1=O | inactive |
| CC(C)CCC(CCN1CCCC1)c1ccc2c(c1)OCO2 (centres undefined) | inconclusive [inhibitor, single point] |
| FC(F)(F)c1ccc2c(c1)nc1n2CCCC1 | inconclusive [inhibitor, single point] |
| Fc1ccc(NCc2cn3ccccc3n2)cc1 | inactive |
| C=CCNC(=O)C1CC(=O)N(c2ccc(OCC(=O)Nc3ccc(CC)cc3)cc2)C1 (centres undefined) | inactive |
| COc1ccc(OC)c(C(C)NC(=O)c2ccco2)c1 (centres undefined) | inactive |
| CCOC(=O)CC(c1ccc(N)cc1)n1c(C)ccc1C (centres undefined) | inconclusive [inhibitor, full curve, poor fit] |
| COc1ccc(N(CC(=O)N2CCN(c3ccc(Cl)cc3)CC2)S(=O)(=O)c2c(C)noc2C)cc1 | inconclusive [inhibitor, partial curve] |
| Cc1ccc(C(=O)N2CCN(c3ccccn3)CC2)cc1Cl | inactive |
| CC1Cc2ccccc2N1C(=O)CSc1nc(-c2ccccc2)cs1 (centres undefined) | inconclusive [inhibitor, partial curve] |
| Cc1ccc(C(=O)N/C(=C\c2cccs2)C(=O)NCCc2c[nH]c3ccccc23)cc1C | inconclusive [inhibitor, partial curve, poor fit] |
| O=c1[nH]c(SCc2nc3ccccc3c(=O)n2-c2ccccc2C(F)(F)F)nc2ccccc12 | inconclusive [inhibitor, partial curve, poor fit] |
| COc1ccc(-n2ncc3c(=O)n(Cc4c(F)cccc4Cl)cnc32)cc1 | inactive |
| Cc1ccc(S(=O)(=O)Nc2cccc(C(=O)NCC(c3ccco3)N(C)C)c2)cc1F (centres undefined) | inconclusive [inhibitor, single point] |
